We go through 79 sequences from the supplement of paper PMC10126150.

Values marked as one replicate rest on one cluster of the flow cell; about a third of the high ones do not repeat.

The data set relates to ATP. Description: switch fluorescence ratio, 500 uM ATP over buffer (Cy3 cluster intensity, sum of 5 cycles each) (fold (ratio)); higher = stronger signal-on switching upon ATP binding; sequences stand for … in TCGTCGGCAGCGTCAGATGTGTATAAGAGACAGTTTTTTTTTTTTTTTTTTTTTTTTT…TC. The note with it: aptamer strand: ATP DNA aptamer (quencher-CACCTGGGGGAGTATTGCGGAGGAAGG + anchor), 100 nM annealed; ATP concentration: 500 uM; one replicate. In a few lines:
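Imaging in selection buffer was followed by imaging after 15 min with 500 uM ATP at 22 °C, for Cy3-labelled switching-strand clusters annealed to 100 nM quencher-labelled ATP aptamer on a modified Illumina MiSeq flow-cell. Five of these buffer/ATP cycles ran, separated by NaOH stripping and re-annealing. The fluorescence ratio per cluster is summed target-cycle over summed buffer-cycle Cy3 intensity, averaged per switch-domain sequence; clusters outside 100-1000 RFU were removed.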
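Note: ATP exposure 15 min at 22 °C before imaging.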

With ACACGACATT, the switch fluorescence ratio amounted to 1.2.

As for GCGACCATTT, the switch fluorescence ratio amounted to 1.02.

TGCCGGGCGG: the switch fluorescence ratio is 1.23.

Turning to GTCCGGGAGG, the switch fluorescence ratio turned out to be 0.974.

On to TCGGATAGCC, for which the switch fluorescence ratio was 1.1.

As to GCGCCGATTA, the switch fluorescence ratio came to 1.08.

On to TGCAATTTG, for which the switch fluorescence ratio turned out to be 2.05.

On to CCATGGGGTT, for which the switch fluorescence ratio is 0.979.

ACGCAGATCG: the switch fluorescence ratio amounted to 1.04.

In the case of CGAATGTGCG, the switch fluorescence ratio was determined as 1.02.

Regarding CGATACGAGT, the switch fluorescence ratio came out at 1.06.

As for CTTAATGG, the switch fluorescence ratio came out at 0.971.

Consider CCGATCAGGG, for which the switch fluorescence ratio came to 1.18.

In the case of TCACTTGGTT, the switch fluorescence ratio was 1.06.

On to GATGAACGAG, for which the switch fluorescence ratio is 0.999.

For GATGAAGCCA, the switch fluorescence ratio was determined as 0.908.

For the sequence AGTCAAGAGT, the switch fluorescence ratio is 1.04.

For GAACCGGTCA, the switch fluorescence ratio was determined as 1.03.

Regarding TGTTTGCCTT, the switch fluorescence ratio amounted to 0.995.

As to AAATCGTCA, the switch fluorescence ratio was 1.01.

With CAAATCGCAA, the switch fluorescence ratio turned out to be 4.05.

Consider ACCGGGTAGT, for which the switch fluorescence ratio worked out at 0.958.

In the case of TTCTAACTGT, the switch fluorescence ratio was 0.984.

For the sequence TTCAAATTGC, the switch fluorescence ratio was determined as 0.937.

AGTTAGTTCA: the switch fluorescence ratio amounted to 1.04.

With AGAGGTATTT, the switch fluorescence ratio worked out at 1.05.

Take ATTCGGCCTG: the switch fluorescence ratio was 1.01.

As to TTTATCCCGC, the switch fluorescence ratio worked out at 1.17.

For the sequence CTTGGGCACC, the switch fluorescence ratio amounted to 1.02.

Regarding CCGTCGGTGG, the switch fluorescence ratio came to 0.985.

As for GTGCTAGCC, the switch fluorescence ratio was 1.02.

For CTTGATAGTC, the switch fluorescence ratio is 1.01.

As for TTCGGTGCCT, the switch fluorescence ratio worked out at 1.3.

As for CCTGTCGAAT, the switch fluorescence ratio came to 1.03.

ACCACTATTT: the switch fluorescence ratio was 1.06.

Turning to CGTAGGCAGG, the switch fluorescence ratio stood at 1.04.

Regarding ATCGCTAGG, the switch fluorescence ratio was 1.02.

AGTAGGCTAA: the switch fluorescence ratio was determined as 1.06.

With TAACGGCTAA, the switch fluorescence ratio was 0.994.

As to CGATCACGCA, the switch fluorescence ratio came out at 1.1.

Consider ATCTTAGAGC, for which the switch fluorescence ratio worked out at 0.967.

Take TTGGGAAGCC: the switch fluorescence ratio worked out at 1.03.

With CAGGCGCGCT, the switch fluorescence ratio was determined as 1.03.

Turning to ACATTAGATT, the switch fluorescence ratio turned out to be 1.02.

Turning to TATCCCTTTG, the switch fluorescence ratio was 1.01.

Consider GTTCACACTT, for which the switch fluorescence ratio is 0.952.

As for ATGCTAAGGC, the switch fluorescence ratio came out at 0.988.

Turning to TCGAGCTTTC, the switch fluorescence ratio is 1.18.

In the case of TGTGAAATTG, the switch fluorescence ratio stood at 0.998.

In the case of TTTATACTAG, the switch fluorescence ratio worked out at 1.01.

As to AATAAAGTCG, the switch fluorescence ratio came to 0.994.

For AAGGCACCTT, the switch fluorescence ratio came out at 1.08.

Turning to CACTTTGATA, the switch fluorescence ratio is 0.987.

On to CGGTAATAAT, for which the switch fluorescence ratio is 1.03.

GCGACTGACT: the switch fluorescence ratio was found to be 1.09.

As for GGGTCCGGCT, the switch fluorescence ratio came to 0.968.

CGGAAAGGAC: the switch fluorescence ratio came out at 1.01.

For the sequence TAAGCCATTT, the switch fluorescence ratio is 1.

Take ACCTACAGTC: the switch fluorescence ratio was found to be 1.21.

For ACACACGTGC, the switch fluorescence ratio stood at 1.29.

In the case of GGGTATCTAG, the switch fluorescence ratio is 0.967.

GGTAACTGGG: the switch fluorescence ratio was 1.01.

Consider CGGGTAC, for which the switch fluorescence ratio worked out at 1.1.

Regarding GTCGGACAAT, the switch fluorescence ratio is 1.01.

TGCAGTTAGG: the switch fluorescence ratio amounted to 1.02.

For GATTTATTT, the switch fluorescence ratio was determined as 1.03.

For the sequence AATTCTGGTC, the switch fluorescence ratio worked out at 1.1.

For the sequence GGACTTGGTG, the switch fluorescence ratio stood at 1.03.

Turning to ACCTCATGTT, the switch fluorescence ratio worked out at 1.01.

In the case of TATGTGTTG, the switch fluorescence ratio worked out at 0.97.

For TTCGGAAAT, the switch fluorescence ratio stood at 0.971.

CGAGGGATG: the switch fluorescence ratio stood at 0.927.

In the case of TTTTAGAACT, the switch fluorescence ratio is 1.01.

On to ACAGTAAGTA, for which the switch fluorescence ratio worked out at 1.03.

Consider TCGGGCACGT, for which the switch fluorescence ratio was found to be 1.01.

With TTTATCTCGT, the switch fluorescence ratio was found to be 0.979.

In the case of TAACAGTGTA, the switch fluorescence ratio came out at 1.1.

Regarding TTGAACGCTT, the switch fluorescence ratio is 0.993.

TGCTGAGTAT: the switch fluorescence ratio amounted to 0.979.
